Measurements reported in PubChem BioAssay AID686971 (National Center for Advancing Translational Sciences (NCATS), 2013).
Hit rate of the full screen: of about 360,000 compounds, about 7,500 (2.1%) were called active. Inconclusive results, whose numbers are uncertain, are shown with a selection of clear calls. Calls follow the shape of the dose curve; as a rule, active = well fitted cell-killing curve with a large enough effect; inconclusive = small, poorly fitted or top-dose-only effect, or effect the other way, or another doubt; inactive = no such curve, though single readings can be large or run the other way. No potency is given beside an inconclusive call; the fits are too rough.

experiment: qHTS for induction of synthetic lethality in tumor cells producing 2HG: qHTS for the HT-1080-IDH1KD cell line; settings: HT-1080 IDH1 knockdown viability, ATP luminescence, 48 h; activity, negative = toxicity: at 46.1 µM (top of the series) unless noted;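 as to activity, negative = toxicity: 0% = DMSO wells and -100% = cell-free medium wells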
Method in brief: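 IDH1KD HT-1080 cells, 750/well, RPMI + 5% FBS; compound pinned after 2 h settling; 48 h, 37 °C; CellTiter-Glo luminescence; % activity normalised to DMSO and no-cell wells; curves fitted, classed by r2 and efficacy.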
Potency is read from the fitted curve at half-maximal effect; tags tell the direction and shape of the fitted curve.

Row | SMILES | Potency | activity, negative = toxicity
1 | O=C(N/N=C/c1ccc([N+](=O)[O-])s1)c1ccncc1 | inconclusive [cytotoxic, single point] | –
2 | CCc1nc2ccccc2c2nc3ccccc3n12 | inconclusive [cytotoxic, single point] | –
3 | NC(=O)CC(NC(=O)Cc1cccc2ccccc12)c1ccc(NCc2ccc(F)cc2)c([N+](=O)[O-])c1 (stereo not drawn) | inconclusive [cytotoxic, single point] | –
4 | COc1cc(Nc2cccc(-c3ccccc3)n2)cc(OC)c1OC | inconclusive [cytotoxic, single point] | –
5 | C=C1[C@@H](O)[C@@H]2O[C@]3(CC[C@H](/C=C/[C@@H](C)[C@@H]4CC(C)=CC5(O[C@H](C[C@@](C)(O)C(=O)OC)CC[C@H]5O)O4)O3)CC[C@H]2O[C@@H]1[C@@H](O)C[C@H](C)[C@H]1OC2(CCCCO2)CC[C@H]1C (stereo partly drawn) | active: 1.16 µM | –
6 | CC1(C)CC(=O)C2=C(C1)c1c(ccc3ccccc13)NC2c1ccco1 (stereo not drawn) | inconclusive [cytotoxic, single point] | –
7 | C=CC[n+]1c(/C=C2\C=Cc3cc(C)ccc3N2CC)ccc2ccccc21 | active: 13 µM | –
8 | COc1cccc(/C=N/NC(=O)c2ccoc2C)c1O | active: 9.2 µM | –
9 | COc1cccc(-c2nnc(NC(=O)c3ccccc3Br)o2)c1 | inconclusive [cytotoxic, single point] | –
10 | COc1ccc(F)cc1C1=CC(=O)C[C@H](c2ccc3c(c2)OCO3)C1 | inconclusive [cytotoxic, single point] | –
11 | Cc1ccc2nc(C)c3c(c2c1)N(c1ccc(F)cc1)CC3 | active: 14.6 µM | –
12 | O=C(NNC(=O)c1cccnc1SCc1cccc([N+](=O)[O-])c1)c1ccccn1 | inconclusive [cytotoxic, full curve] | –
13 | CCOc1ccc(C(O)Cn2c(=N)n(CCN3CCCCC3)c3ccccc32)cc1 (stereo not drawn) | inconclusive [cytotoxic, single point] | –
14 | COCCN(CCOC)Cc1cc(=O)oc2ccc3ccccc3c12 | – | inactive: -22.3%
15 | COc1ccc(-c2cc(C(=O)Nc3cc(C)n(Cc4ccc(Cl)cc4)n3)no2)cc1OC | inconclusive [cytotoxic, single point] | –
16 | Cc1ccc(O)c(N=CC2=C(O)c3ccccc3C2=O)c1 | inconclusive [cytotoxic, single point] | –
17 | CC1(C(=O)NS(=O)(=O)C2CC2)CCCN(C(=O)COCc2ccccc2)C1 (stereo not drawn) | – | inconclusive: -15.5% [cytotoxic]
18 | CCC(=O)N1CCN(c2ccccc2NC(=O)COc2ccc(C(C)C)cc2)CC1 | inconclusive [cytotoxic, single point] | –
